By IC50 is meant the dose at which the fit gives 50% viability; a fit beyond the top or the lowest dose is shown as a bound at that dose. The AUC spans the tested range (256-fold, ending at the top dose) of the same fit; values near 1 show little effect. For some of these results: A top dose marked as inferred was derived from the fitted curves, not read from the paper. For some of these results: Where an entry number is given, a second screen of the drug exists; the two often differ.
What was measured:
Test in all cases: Viability of human cancer cell lines after 72 h of drug (GDSC screen)
XMD13-2 = compound: O=C(NC1CC1)c1cccc(-c2ccc3c(NC(=O)C4CC4)n[nH]c3c2)c1 [XMD13-2]; conditions: top dose 10.24 µM; top dose inferred
Protocol: (§1)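 Human cancer cell lines in 384-well plates, medium with 10% serum, drug for 72 h over a 256-fold dose range (nine 2-fold or five 4-fold steps up to the top dose). Adherent lines were fixed and stained with the nucleic acid dye Syto60, suspension lines read with resazurin; signal relative to control wells, capped at 0 and 100%. One two-parameter sigmoid per drug and line, fitted in a mixed model over all curves with the slope shared within a line.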

SNX-2112 = compound: CC1(C)CC(=O)c2c(C(F)(F)F)nn(-c3ccc(C(N)=O)c(N[C@H]4CC[C@H](O)CC4)c3)c2C1 [SNX-2112]; conditions: top dose 2.56 µM
Protocol: as §1

PF-562271 = compound: CN(c1ncccc1CNc1nc(Nc2ccc3c(c2)CC(=O)N3)ncc1C(F)(F)F)S(C)(=O)=O [PF-562271]; conditions: top dose 2.56 µM; top dose inferred
Protocol: as §1

Vinblastine = compound: CC[C@]1(O)C[C@@H]2CN(CCc3c([nH]c4ccccc34)[C@@](C(=O)OC)(c3cc4c(cc3OC)N(C)[C@H]3[C@@](O)(C(=O)OC)[C@H](OC(C)=O)[C@]5(CC)C=CCN6CC[C@]43[C@@H]65)C2)C1 [Vinblastine]; conditions: top dose 0.1 µM; top dose inferred
Protocol: as §1

Afatinib = compound: CN(C)C/C=C/C(=O)Nc1cc2c(Nc3ccc(F)c(Cl)c3)ncnc2cc1O[C@H]1CCOC1 [Afatinib]
Protocol: as §1

[1] = top dose 0.5 µM, screen: GDSC drug entry 1032
[2] = top dose 10 µM, screen: GDSC drug entry 1377, top dose inferred

HCC1419 (breast, adherent)
AUC (XMD13-2): 0.954 | IC50 (XMD13-2): > 10.2 µM | AUC (SNX-2112): 0.838 | IC50 (SNX-2112): > 2560 nM | AUC (PF-562271): 0.98 | IC50 (PF-562271): > 2560 nM | AUC (Vinblastine): 0.72 | IC50 (Vinblastine): 34.8 nM | AUC (Afatinib; [1]): 0.787 | IC50 (Afatinib; [1]): 325 nM | AUC (Afatinib; [2]): 0.73 | IC50 (Afatinib; [2]): 3800 nM

HCC1569 (breast, adherent)
AUC (XMD13-2): 0.952 | IC50 (XMD13-2): > 10.2 µM | AUC (SNX-2112): 0.811 | IC50 (SNX-2112): 1960 nM | AUC (PF-562271): 0.956 | IC50 (PF-562271): > 2560 nM | AUC (Vinblastine): 0.78 | IC50 (Vinblastine): 56.2 nM | AUC (Afatinib; [1]): 0.861 | IC50 (Afatinib; [1]): > 500 nM | AUC (Afatinib; [2]): 0.837 | IC50 (Afatinib; [2]): > 10000 nM

HCC1954 (breast, adherent)
AUC (XMD13-2): 0.841 | IC50 (XMD13-2): 8.94 µM | AUC (SNX-2112): 0.911 | IC50 (SNX-2112): > 2560 nM | AUC (PF-562271): 0.975 | IC50 (PF-562271): > 2560 nM | AUC (Vinblastine): 0.782 | IC50 (Vinblastine): 49.4 nM | AUC (Afatinib; [1]): 0.964 | IC50 (Afatinib; [1]): > 500 nM | AUC (Afatinib; [2]): 0.677 | IC50 (Afatinib; [2]): 2120 nM

HCC2157 (breast, suspension)
AUC (XMD13-2): 0.917 | IC50 (XMD13-2): > 10.2 µM | AUC (SNX-2112): 0.987 | IC50 (SNX-2112): > 2560 nM | AUC (PF-562271): 0.899 | IC50 (PF-562271): > 2560 nM | AUC (Vinblastine): 0.742 | IC50 (Vinblastine): 32.2 nM | AUC (Afatinib; [1]): 0.719 | IC50 (Afatinib; [1]): 135 nM | AUC (Afatinib; [2]): 0.895 | IC50 (Afatinib; [2]): > 10000 nM

HCC2218 (breast, suspension)
AUC (XMD13-2): 0.869 | IC50 (XMD13-2): > 10.2 µM | AUC (SNX-2112): 0.737 | IC50 (SNX-2112): 919 nM | AUC (PF-562271): 0.968 | IC50 (PF-562271): > 2560 nM | AUC (Vinblastine): 0.914 | IC50 (Vinblastine): > 100 nM | AUC (Afatinib; [1]): 0.543 | IC50 (Afatinib; [1]): 42.2 nM | AUC (Afatinib; [2]): 0.368 | IC50 (Afatinib; [2]): 245 nM

HCC2998 (large intestine, adherent)
AUC (XMD13-2): 0.964 | IC50 (XMD13-2): > 10.2 µM | AUC (SNX-2112): 0.736 | IC50 (SNX-2112): 738 nM | AUC (PF-562271): 0.906 | IC50 (PF-562271): > 2560 nM | AUC (Vinblastine): 0.544 | IC50 (Vinblastine): 8.22 nM | AUC (Afatinib; [1]): 0.978 | IC50 (Afatinib; [1]): > 500 nM

HCC-44 (lung adenocarcinoma, adherent)
AUC (XMD13-2): 0.918 | IC50 (XMD13-2): > 10.2 µM | AUC (SNX-2112): 0.353 | IC50 (SNX-2112): 63.4 nM | AUC (PF-562271): 0.879 | IC50 (PF-562271): 2530 nM | AUC (Vinblastine): 0.372 | IC50 (Vinblastine): 2.79 nM | AUC (Afatinib; [1]): 0.9 | IC50 (Afatinib; [1]): > 500 nM | AUC (Afatinib; [2]): 0.973 | IC50 (Afatinib; [2]): > 10000 nM

HCC-56 (large intestine, adherent)
AUC (XMD13-2): 0.898 | IC50 (XMD13-2): > 10.2 µM | AUC (SNX-2112): 0.745 | IC50 (SNX-2112): 821 nM | AUC (PF-562271): 0.935 | IC50 (PF-562271): > 2560 nM | AUC (Vinblastine): 0.873 | IC50 (Vinblastine): > 100 nM | AUC (Afatinib; [1]): 0.944 | IC50 (Afatinib; [1]): > 500 nM | AUC (Afatinib; [2]): 0.845 | IC50 (Afatinib; [2]): 7460 nM

HCC-78 (lung adenocarcinoma, adherent)
AUC (XMD13-2): 0.909 | IC50 (XMD13-2): > 10.2 µM | AUC (SNX-2112): 0.9 | IC50 (SNX-2112): > 2560 nM | AUC (PF-562271): 0.915 | IC50 (PF-562271): > 2560 nM | AUC (Vinblastine): 0.596 | IC50 (Vinblastine): 12 nM | AUC (Afatinib; [1]): 0.881 | IC50 (Afatinib; [1]): > 500 nM | AUC (Afatinib; [2]): 0.914 | IC50 (Afatinib; [2]): > 10000 nM

HCT-15 (large intestine, adherent)
AUC (XMD13-2): 0.972 | IC50 (XMD13-2): > 10.2 µM | AUC (SNX-2112): 0.568 | IC50 (SNX-2112): 248 nM | AUC (PF-562271): 0.986 | IC50 (PF-562271): > 2560 nM | AUC (Vinblastine): 0.904 | IC50 (Vinblastine): > 100 nM | AUC (Afatinib; [1]): 0.985 | IC50 (Afatinib; [1]): > 500 nM | AUC (Afatinib; [2]): 0.985 | IC50 (Afatinib; [2]): > 10000 nM

HD-MY-Z (Hodgkin lymphoma, adherent)
AUC (XMD13-2): 0.862 | IC50 (XMD13-2): 8.84 µM | AUC (SNX-2112): 0.383 | IC50 (SNX-2112): 76.3 nM | AUC (PF-562271): 0.986 | IC50 (PF-562271): > 2560 nM | AUC (Vinblastine): 0.418 | IC50 (Vinblastine): 3.73 nM | AUC (Afatinib; [1]): 0.983 | IC50 (Afatinib; [1]): > 500 nM | AUC (Afatinib; [2]): 0.952 | IC50 (Afatinib; [2]): > 10000 nM
